For 40 sequences, binding signal results are on record in article PMC12820563, “FoxP3 forms a head-to-head dimer in vivo and stabilizes its multimerization on adjacent microsatellites”.

This is one part of the list.

The test has as its target T1, MBP-FoxP1dN (Mus musculus, UniProt P58462 326-579).
T1 sequence: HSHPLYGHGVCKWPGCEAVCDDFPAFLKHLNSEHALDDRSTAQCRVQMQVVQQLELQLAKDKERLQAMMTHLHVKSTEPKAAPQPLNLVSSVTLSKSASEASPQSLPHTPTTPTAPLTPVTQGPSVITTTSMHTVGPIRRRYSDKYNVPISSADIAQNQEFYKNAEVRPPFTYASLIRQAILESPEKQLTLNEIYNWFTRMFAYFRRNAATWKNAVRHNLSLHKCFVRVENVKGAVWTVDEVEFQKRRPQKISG
Nature of the test: PD-seq (MBP pull-down with sequencing); 20 mM Tris-HCl pH 7.5, 100 mM NaCl, 1.5 mM MgCl2, 0.4 uM protein, 0.1 uM dsDNA library, 30 min, room temperature, amylose pull-down; high values mean tight binding. Conditions: protein: recombinant; tags: His6-MBP; chain copies: 2; dsDNA, one strand shown. The method, boiled down:
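A degenerate double-stranded DNA library, filled in with Klenow, was added at 0.1 µM to 0.4 µM His6-MBP-tagged mouse FoxP3 or FoxP1 fragment lacking the N-terminus, expressed in E. coli. Incubation lasted 30 min at room temperature in Tris pH 7.5 buffer with NaCl and MgCl2, after which complexes were collected on amylose resin, washed three times, digested with proteinase K to free the DNA, barcoded by PCR and sequenced by Illumina. Binding is the pooled-replicate reads-per-million enrichment of pull-down over input.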
For “GATGATTGTTCTCCCAGCTGATGAATTGCTGTCTTCGAGTAAACAAATTTTCCTAATCTTTCTGTTCAAGCGCCATCTAC”, the binding signal is 1.21 RPM ratio (pull-down/input).
The same measure for “GATGATTGTTCTCCCAGCTGATGAATTAGGACGGTCGAGTAAACAAATTTTCCTAATCTTTCTGTTCAAGCGCCATCTAC”: 0.825 RPM ratio (pull-down/input); for “GATGATTGTTCTCCCAGCTGATGAATTTGTGATTTCGAGTAAACAAATTTTCCTAATCTTTCTGTTCAAGCGCCATCTAC”: 1.41 RPM ratio (pull-down/input); for “GATGATTGTTCTCCCAGCTGATGAATTTGTATTATCGAGTAAACAAATTTTCCTAATCTTTCTGTTCAAGCGCCATCTAC”: 2.13 RPM ratio (pull-down/input).
“GATGATTGTTCTCCCAGCTGATGAATTACCCCGCTCGAGTAAACAAATTTTCCTAATCTTTCTGTTCAAGCGCCATCTAC”: the binding signal was 0.848 RPM ratio (pull-down/input).
On to “GATGATTGTTCTCCCAGCTGATGAATTATAAGCATCGAGTAAACAAATTTTCCTAATCTTTCTGTTCAAGCGCCATCTAC”, for which the binding signal was 1.33 RPM ratio (pull-down/input).
The same measure for “GATGATTGTTCTCCCAGCTGATGAATTTTTGCGTTCGAGTAAACAAATTTTCCTAATCTTTCTGTTCAAGCGCCATCTAC”: 1.08 RPM ratio (pull-down/input); for “GATGATTGTTCTCCCAGCTGATGAATTAGGCCCTTCGAGTAAACAAATTTTCCTAATCTTTCTGTTCAAGCGCCATCTAC”: 0.851 RPM ratio (pull-down/input); for “GATGATTGTTCTCCCAGCTGATGAATTCGTTCTTTCGAGTAAACAAATTTTCCTAATCTTTCTGTTCAAGCGCCATCTAC”: 0.832 RPM ratio (pull-down/input).
Take “GATGATTGTTCTCCCAGCTGATGAATTTACGAGCTCGAGTAAACAAATTTTCCTAATCTTTCTGTTCAAGCGCCATCTAC”: the binding signal was 1.18 RPM ratio (pull-down/input).
Consider “GATGATTGTTCTCCCAGCTGATGAATTTCGTGGATCGAGTAAACAAATTTTCCTAATCTTTCTGTTCAAGCGCCATCTAC”, for which the binding signal was 0.859 RPM ratio (pull-down/input).
Turning to “GATGATTGTTCTCCCAGCTGATGAATTCTTAAGGTCGAGTAAACAAATTTTCCTAATCTTTCTGTTCAAGCGCCATCTAC”, the binding signal is 0.814 RPM ratio (pull-down/input).
As to “GATGATTGTTCTCCCAGCTGATGAATTGGTTCCCTCGAGTAAACAAATTTTCCTAATCTTTCTGTTCAAGCGCCATCTAC”, the binding signal was 0.916 RPM ratio (pull-down/input).
Regarding “GATGATTGTTCTCCCAGCTGATGAATTGTTCCACTCGAGTAAACAAATTTTCCTAATCTTTCTGTTCAAGCGCCATCTAC”, the binding signal is 1.12 RPM ratio (pull-down/input).
On to “GATGATTGTTCTCCCAGCTGATGAATTAGGGTGGTCGAGTAAACAAATTTTCCTAATCTTTCTGTTCAAGCGCCATCTAC”, for which the binding signal is 0.854 RPM ratio (pull-down/input).
Regarding “GATGATTGTTCTCCCAGCTGATGAATTATTAACATCGAGTAAACAAATTTTCCTAATCTTTCTGTTCAAGCGCCATCTAC”, the binding signal is 1.32 RPM ratio (pull-down/input).
The same measure for “GATGATTGTTCTCCCAGCTGATGAATTTGCTACATCGAGTAAACAAATTTTCCTAATCTTTCTGTTCAAGCGCCATCTAC”: 1.16 RPM ratio (pull-down/input).
In the case of “GATGATTGTTCTCCCAGCTGATGAATTGCTTAATTCGAGTAAACAAATTTTCCTAATCTTTCTGTTCAAGCGCCATCTAC”, the binding signal is 1.19 RPM ratio (pull-down/input).
For the sequence “GATGATTGTTCTCCCAGCTGATGAATTTATTTCCTCGAGTAAACAAATTTTCCTAATCTTTCTGTTCAAGCGCCATCTAC”, the binding signal is 1.3 RPM ratio (pull-down/input).
Consider “GATGATTGTTCTCCCAGCTGATGAATTAGTATCCTCGAGTAAACAAATTTTCCTAATCTTTCTGTTCAAGCGCCATCTAC”, for which the binding signal is 1.07 RPM ratio (pull-down/input).
Take “GATGATTGTTCTCCCAGCTGATGAATTTTTTCACTCGAGTAAACAAATTTTCCTAATCTTTCTGTTCAAGCGCCATCTAC”: the binding signal is 0.964 RPM ratio (pull-down/input).
On to “GATGATTGTTCTCCCAGCTGATGAATTAAGCTGGTCGAGTAAACAAATTTTCCTAATCTTTCTGTTCAAGCGCCATCTAC”, for which the binding signal is 0.842 RPM ratio (pull-down/input).
Take “GATGATTGTTCTCCCAGCTGATGAATTTATATGGTCGAGTAAACAAATTTTCCTAATCTTTCTGTTCAAGCGCCATCTAC”: the binding signal was 1.15 RPM ratio (pull-down/input).
The same measure for “GATGATTGTTCTCCCAGCTGATGAATTCGAATACTCGAGTAAACAAATTTTCCTAATCTTTCTGTTCAAGCGCCATCTAC”: 0.906 RPM ratio (pull-down/input).
For “GATGATTGTTCTCCCAGCTGATGAATTTGTCTACTCGAGTAAACAAATTTTCCTAATCTTTCTGTTCAAGCGCCATCTAC”, the binding signal was 1.24 RPM ratio (pull-down/input).
On to “GATGATTGTTCTCCCAGCTGATGAATTTAAGTTATCGAGTAAACAAATTTTCCTAATCTTTCTGTTCAAGCGCCATCTAC”, for which the binding signal is 1.1 RPM ratio (pull-down/input).
For the sequence “GATGATTGTTCTCCCAGCTGATGAATTTGAAACGTCGAGTAAACAAATTTTCCTAATCTTTCTGTTCAAGCGCCATCTAC”, the binding signal was 0.869 RPM ratio (pull-down/input).
Consider “GATGATTGTTCTCCCAGCTGATGAATTGTTCCATTCGAGTAAACAAATTTTCCTAATCTTTCTGTTCAAGCGCCATCTAC”, for which the binding signal was 1.21 RPM ratio (pull-down/input).
In the case of “GATGATTGTTCTCCCAGCTGATGAATTGTGCATGTCGAGTAAACAAATTTTCCTAATCTTTCTGTTCAAGCGCCATCTAC”, the binding signal was 1.2 RPM ratio (pull-down/input).
The same measure for “GATGATTGTTCTCCCAGCTGATGAATTTAATTGATCGAGTAAACAAATTTTCCTAATCTTTCTGTTCAAGCGCCATCTAC”: 1.08 RPM ratio (pull-down/input).
Under “GATGATTGTTCTCCCAGCTGATGAATTGCGTTTCTCGAGTAAACAAATTTTCCTAATCTTTCTGTTCAAGCGCCATCTAC” stands 1.2 RPM ratio (pull-down/input); under “GATGATTGTTCTCCCAGCTGATGAATTACACATTTCGAGTAAACAAATTTTCCTAATCTTTCTGTTCAAGCGCCATCTAC”, 1.46 RPM ratio (pull-down/input).
“GATGATTGTTCTCCCAGCTGATGAATTTACTAGTTCGAGTAAACAAATTTTCCTAATCTTTCTGTTCAAGCGCCATCTAC”: the binding signal was 1.39 RPM ratio (pull-down/input).
Turning to “GATGATTGTTCTCCCAGCTGATGAATTGTGTAACTCGAGTAAACAAATTTTCCTAATCTTTCTGTTCAAGCGCCATCTAC”, the binding signal is 1.19 RPM ratio (pull-down/input).
In the case of “GATGATTGTTCTCCCAGCTGATGAATTAGGTGACTCGAGTAAACAAATTTTCCTAATCTTTCTGTTCAAGCGCCATCTAC”, the binding signal was 0.926 RPM ratio (pull-down/input).
As for “GATGATTGTTCTCCCAGCTGATGAATTCCTTTTCTCGAGTAAACAAATTTTCCTAATCTTTCTGTTCAAGCGCCATCTAC”, the binding signal is 0.874 RPM ratio (pull-down/input).
Turning to “GATGATTGTTCTCCCAGCTGATGAATTACGTCACTCGAGTAAACAAATTTTCCTAATCTTTCTGTTCAAGCGCCATCTAC”, the binding signal is 1.08 RPM ratio (pull-down/input).
As to “GATGATTGTTCTCCCAGCTGATGAATTCTCTTGTTCGAGTAAACAAATTTTCCTAATCTTTCTGTTCAAGCGCCATCTAC”, the binding signal was 0.872 RPM ratio (pull-down/input).
As to “GATGATTGTTCTCCCAGCTGATGAATTGCCAAGGTCGAGTAAACAAATTTTCCTAATCTTTCTGTTCAAGCGCCATCTAC”, the binding signal was 0.886 RPM ratio (pull-down/input).
For the sequence “GATGATTGTTCTCCCAGCTGATGAATTGTTATCTTCGAGTAAACAAATTTTCCTAATCTTTCTGTTCAAGCGCCATCTAC”, the binding signal was 1.53 RPM ratio (pull-down/input).
